Experimental findings from PMC4336329 (PLoS ONE, 2015) are described below.

The campaign covered roughly 310,000 compounds. About 2,200 (0.71%) showed an effect of 50% or more. Effects have a minus sign here. The list shows a part of the results.

The target of this assay is human ether-à-go-go-related gene (hERG) potassium channel (human, UniProt Q12809). Put plainly: primary screen, population patch clamp on CHO cells stably expressing hERG.
Sequence of human ether-à-go-go-related gene (hERG) potassium channel (Q12809 whole entry, looked up): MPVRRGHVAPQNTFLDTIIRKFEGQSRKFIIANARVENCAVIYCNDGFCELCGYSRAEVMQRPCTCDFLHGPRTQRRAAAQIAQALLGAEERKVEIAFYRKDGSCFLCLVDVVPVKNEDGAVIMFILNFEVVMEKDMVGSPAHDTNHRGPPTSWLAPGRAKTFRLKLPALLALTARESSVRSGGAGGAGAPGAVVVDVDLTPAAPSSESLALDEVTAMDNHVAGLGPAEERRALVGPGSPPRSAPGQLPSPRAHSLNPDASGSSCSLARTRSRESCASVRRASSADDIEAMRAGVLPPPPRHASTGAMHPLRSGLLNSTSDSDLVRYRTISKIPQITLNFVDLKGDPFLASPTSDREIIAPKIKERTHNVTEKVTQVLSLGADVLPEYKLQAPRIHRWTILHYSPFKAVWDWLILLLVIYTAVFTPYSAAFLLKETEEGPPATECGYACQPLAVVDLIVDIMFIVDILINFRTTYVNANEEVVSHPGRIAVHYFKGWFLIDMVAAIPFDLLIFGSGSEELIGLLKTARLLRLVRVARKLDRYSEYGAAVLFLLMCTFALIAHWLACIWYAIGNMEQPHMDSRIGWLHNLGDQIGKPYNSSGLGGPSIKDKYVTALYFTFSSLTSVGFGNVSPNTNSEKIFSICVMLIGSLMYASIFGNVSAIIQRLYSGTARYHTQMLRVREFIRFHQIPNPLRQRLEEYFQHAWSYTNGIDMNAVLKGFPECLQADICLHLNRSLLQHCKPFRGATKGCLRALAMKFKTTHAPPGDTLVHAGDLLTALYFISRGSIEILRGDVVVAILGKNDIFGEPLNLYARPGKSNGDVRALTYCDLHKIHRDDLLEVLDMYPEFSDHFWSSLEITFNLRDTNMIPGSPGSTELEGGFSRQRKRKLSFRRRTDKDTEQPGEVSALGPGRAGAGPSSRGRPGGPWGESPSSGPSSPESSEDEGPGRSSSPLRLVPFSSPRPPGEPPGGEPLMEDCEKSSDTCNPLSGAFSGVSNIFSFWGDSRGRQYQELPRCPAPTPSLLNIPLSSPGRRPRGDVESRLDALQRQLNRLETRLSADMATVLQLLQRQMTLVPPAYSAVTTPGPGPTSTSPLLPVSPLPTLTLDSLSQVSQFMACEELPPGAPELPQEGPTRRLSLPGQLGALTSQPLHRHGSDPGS
Regarding `COC(=O)CSc1ccc2nnc(CCNS(=O)(=O)c3ccc(C)cc3)n2n1`, the “hERG current change (%, negative = inhibition) at 1uM” value is 15.3%.

Consider `COc1ccc(N(CC(=O)N2CCCCC2)S(=O)(=O)c2c(C)nn(C)c2C)cc1`, for which the “hERG current change (%, negative = inhibition) at 1uM” value is given as 5.99%.

With `COc1ccc(C(=O)/C=C2/C(=O)Nc3ccccc32)cc1OC`, the “hERG current change (%, negative = inhibition) at 1uM” value came out at 12.7%.

For `O=c1[nH]c(=O)n(Cc2ccco2)c(O)c1C=NC1CCN(Cc2ccccc2)CC1`, the “hERG current change (%, negative = inhibition) at 1uM” value is -26.4%.

Turning to `Cc1cccn2c(=O)c3cc(S(=O)(=O)c4ccc(F)cc4)c(=N)n(Cc4ccco4)c3nc12`, the “hERG current change (%, negative = inhibition) at 1uM” value stood at 18.4%.

Take `C/C(=N\NC(=O)CSc1nc(C)cc(C)n1)c1cccc([N+](=O)[O-])c1`: the “hERG current change (%, negative = inhibition) at 1uM” value is recorded as 5.24%.

For `CC(C)(C)C1CCc2c(sc3nc(SCC(N)=O)nc(N)c23)C1` (stereo not drawn), the “hERG current change (%, negative = inhibition) at 1uM” value was 0.813%.

Take `O=C(CC1CCCCC1)NCc1ccc(F)cc1`: the “hERG current change (%, negative = inhibition) at 1uM” value was 12.3%.

Consider `Cc1ccc(C(=O)OCC(=O)NC(=O)Cc2ccccc2)c(O)c1`, for which the “hERG current change (%, negative = inhibition) at 1uM” value was 11.8%.

For `CCOc1ccc(C(=O)Nc2nnn(CC)n2)cc1`, the “hERG current change (%, negative = inhibition) at 1uM” value was 11.3%.

On to `O=C(Nc1ccc(Br)cc1)C1C2C=CC3(O2)C1C(=O)N(CCN1CCOCC1)C3C(=O)NC1CCCCC1` (stereo not drawn), for which the “hERG current change (%, negative = inhibition) at 1uM” value is recorded as 5.53%.

With `Cl.c1ccc2c(c1)CCCc1cc(NCCN3CCOCC3)nnc1-2`, the “hERG current change (%, negative = inhibition) at 1uM” value is recorded as 1.26%.

Take `O=CNc1ccccc1`: the “hERG current change (%, negative = inhibition) at 1uM” value came to 7.74%.

As to `CCOC(=O)c1c(-n2c(C)cc(C=C3C(=O)NC(=O)NC3=O)c2C)sc2c1CCCC2`, the “hERG current change (%, negative = inhibition) at 1uM” value amounted to 2.05%.

`CCC(C)(C(=O)NC1CCCC1)N(C(=O)c1cnccn1)c1c(C)n(C)n(-c2ccccc2)c1=O` (stereo not drawn): the “hERG current change (%, negative = inhibition) at 1uM” value is given as 4.22%.

`COc1ccc(-c2noc3c2-c2nc(-c4ccccc4F)sc2CC3)cc1`: the “hERG current change (%, negative = inhibition) at 1uM” value is 6.56%.

Regarding `CCOC(=O)CON1C(=O)C(C)(C)N(OCC(=O)OCC)C(=O)C1(C)C`, the “hERG current change (%, negative = inhibition) at 1uM” value is 15.7%.

Consider `O=C1COc2ccc(C(=O)c3ccccc3)cc2CN1`, for which the “hERG current change (%, negative = inhibition) at 1uM” value was found to be 11.6%.

Regarding `CC1(c2ccccc2)CC(c2ccccc2)=Nc2nonc2N1` (stereo not drawn), the “hERG current change (%, negative = inhibition) at 1uM” value is given as 0.0258%.

As for `CS(=O)(=O)Nc1cccc(C2=NN(C(=O)c3cccc(F)c3)C(c3cccs3)C2)c1` (stereo not drawn), the “hERG current change (%, negative = inhibition) at 1uM” value was 11.7%.

With `CCN1C(=O)N(S(=O)(=O)c2ccc(C)cc2)[C@@H](c2ccccc2)C(C(=O)OC)=C1C`, the “hERG current change (%, negative = inhibition) at 1uM” value came out at 6.53%.

Regarding `COCCn1c(-c2ccc(OC)cc2)nc2ccccc21`, the “hERG current change (%, negative = inhibition) at 1uM” value amounted to 9.33%.

Consider `O=C1CCC(=O)N1CN(C(=O)c1ccco1)c1ccccc1`, for which the “hERG current change (%, negative = inhibition) at 1uM” value is 17.4%.

On to `N/C(=N\N=C\c1ccc2c(c1)OCO2)SC1CC(=O)N(c2ccc(C(=O)O)cc2)C1=O` (stereo not drawn), for which the “hERG current change (%, negative = inhibition) at 1uM” value is recorded as 11.4%.

Take `COc1ccc(NC(=O)CSc2nnc(N)n2CC(=O)Nc2ccc(OC)cc2)cc1`: the “hERG current change (%, negative = inhibition) at 1uM” value is listed as 7.38%.

For `COc1ccccc1-n1cnc2cc(NC(C)=O)ccc21`, the “hERG current change (%, negative = inhibition) at 1uM” value is listed as 15.2%.

`CC1CC(C)CN(c2nc(N(C)c3ccccc3)nc(N)c2[N+](=O)[O-])C1` (stereo not drawn): the “hERG current change (%, negative = inhibition) at 1uM” value is 8%.

As for `Cc1ccc(C(=O)NCC(=O)NC2CCCCCC2)cc1`, the “hERG current change (%, negative = inhibition) at 1uM” value is listed as 5.94%.

As to `O=[N+]([O-])c1ccc2c(c1)nc(CO)n2Cc1ccccc1`, the “hERG current change (%, negative = inhibition) at 1uM” value came to 19.6%.

Consider `Cc1nc(C)n(CC(O)COc2ccc3ccccc3c2)n1` (stereo not drawn), for which the “hERG current change (%, negative = inhibition) at 1uM” value is given as -0.527%.

Consider `O=c1c2ccccc2[nH]c(=S)n1CCCN1CCOCC1`, for which the “hERG current change (%, negative = inhibition) at 1uM” value worked out at 8.76%.

Turning to `CCOC(=O)C1CCN(Cc2cc(Cl)c3ccccc3c2O)CC1`, the “hERG current change (%, negative = inhibition) at 1uM” value was 13.8%.

For `COc1ccc(C(=O)NC2CCN(CC(=O)NCc3ccccc3)CC2)cc1`, the “hERG current change (%, negative = inhibition) at 1uM” value stood at 1.4%.

Regarding `COc1cccc(/C=C/c2ccc3cccc(O)c3n2)c1OC`, the “hERG current change (%, negative = inhibition) at 1uM” value is recorded as 13.6%.

On to `C=CCN1C(=O)CSC1=Nc1cccc(O)c1`, for which the “hERG current change (%, negative = inhibition) at 1uM” value is listed as 2.94%.

For the molecule `O=C(OCC(=O)N1CCCC1)c1cc(Br)ccc1Cl`, the “hERG current change (%, negative = inhibition) at 1uM” value was 0.487%.

On to `Nc1ccc(O)cc1C(=O)OCC(=O)C12CC3CC(CC(C3)C1)C2`, for which the “hERG current change (%, negative = inhibition) at 1uM” value is 11.3%.

On to `CCCCCCc1ccc(N2C[C@H](CCCCC)[C@@H](CC(=O)NCc3ccccc3)C2=O)cc1`, for which the “hERG current change (%, negative = inhibition) at 1uM” value was determined as 4.33%.

Take `CCC(C)c1ccc(O)c(/C=N/O)c1` (stereo not drawn): the “hERG current change (%, negative = inhibition) at 1uM” value stood at 8.47%.

`CC12CC(NC(=O)N1c1cccc(C(=O)N3CCN(c4ccccc4F)CC3)c1)c1ccccc1O2` (stereo not drawn): the “hERG current change (%, negative = inhibition) at 1uM” value stood at 0.757%.

Turning to `COc1ccc(C(O)(CCC(C)C)C(CN2CCOCC2)c2ccc(Cl)cc2)cc1.Cl` (stereo not drawn), the “hERG current change (%, negative = inhibition) at 1uM” value is -1.97%.

For the molecule `Cc1ccc(OCC(=O)Nc2ccncc2)cc1`, the “hERG current change (%, negative = inhibition) at 1uM” value amounted to 12.6%.

Take `O=C(Nc1ccn(Cc2c(F)c(F)c(F)c(F)c2F)n1)c1ccc(COc2ccccc2Cl)cc1`: the “hERG current change (%, negative = inhibition) at 1uM” value was found to be 10%.

As to `CCOc1cc(C(=S)N2CCOCC2)ccc1O`, the “hERG current change (%, negative = inhibition) at 1uM” value is 1.25%.

Regarding `Cc1ccc(NC2=NCC(=O)N2C2CCCC2)cc1.Cl`, the “hERG current change (%, negative = inhibition) at 1uM” value was found to be 13.9%.

For `COc1c(C(=O)Nc2ccc(CN3CCOCC3)cc2)cc2ccccc2c1Br`, the “hERG current change (%, negative = inhibition) at 1uM” value is -2.39%.

For the molecule `O=C(CN1C2CCCC1CC(NC(=O)c1ccco1)C2)Nc1ccccc1` (stereo not drawn), the “hERG current change (%, negative = inhibition) at 1uM” value is reported as -7.65%.

As for `Cc1ccc(C(=O)Nc2ncccc2O)cc1S(=O)(=O)N1CCCCC1`, the “hERG current change (%, negative = inhibition) at 1uM” value is 7.13%.

Consider `CCC(=O)c1ccc(OCC(=O)Nc2ccccc2C(=O)NC2CC2)cc1`, for which the “hERG current change (%, negative = inhibition) at 1uM” value is given as 6.29%.

In the case of `COc1ccc(CCN(C)C(=O)CSc2nnc(-c3ccco3)o2)cc1OC`, the “hERG current change (%, negative = inhibition) at 1uM” value was 2.84%.

With `CC1Cc2ccccc2N1C(=O)COC(=O)c1ccc(N(C)C)cc1` (stereo not drawn), the “hERG current change (%, negative = inhibition) at 1uM” value amounted to 11%.

With `O=S(=O)(NCC1CCCO1)c1cnc(Cl)c(Cl)c1` (stereo not drawn), the “hERG current change (%, negative = inhibition) at 1uM” value turned out to be 6.56%.

Turning to `Cc1cc(NC(=O)C23CC4CC(CC(C4)C2)C3)n[nH]1`, the “hERG current change (%, negative = inhibition) at 1uM” value was 4.25%.

As for `COc1cc(/C=N/n2cnc3scc(-c4cccs4)c3c2=O)cc(OC)c1OC`, the “hERG current change (%, negative = inhibition) at 1uM” value was determined as 11.5%.

As for `CC(=O)C1=C(NC(=O)c2ccc(C(F)(F)F)cc2)C[C@@H]2[C@H]1C2(C)C`, the “hERG current change (%, negative = inhibition) at 1uM” value worked out at 11.5%.

On to `CC1CCC2C(=O)N(c3ccc(S(=O)(=O)c4ccccc4)cc3)C(=O)C2C1` (stereo not drawn), for which the “hERG current change (%, negative = inhibition) at 1uM” value is given as 8.98%.

Take `Cc1nc(-c2noc(-c3ccc(Cl)cc3)n2)c(C(F)(F)F)o1`: the “hERG current change (%, negative = inhibition) at 1uM” value turned out to be 15.8%.
